{
  "source": "PubChem BioAssay AID686979",
  "about": "(National Center for Advancing Translational Sciences (NCATS), 2013)",
  "note": "The campaign covered roughly 420,000 compounds. About 50,000 (12%) were called active. This list was built around the results that the source calls inconclusive (neither active nor inactive); the mix of calls is not that of the screen. The call rests on the fitted dose curve; in most records, active means well fitted inhibition curve with a large enough effect; inconclusive means small, poorly fitted or top-dose-only effect; inactive means flat fitted curve, though single readings scatter. No potency is given beside an inconclusive call; the fits are too rough. Potency means the concentration at half of the fitted maximal effect; tags describe the fitted curve by direction and shape.",
  "data": [
    {"test": "qHTS for Inhibitors of human tyrosyl-DNA phosphodiesterase 1 (TDP1): qHTS in cells in presence of CPT; further: nearly all actives have a fitted effect of over 55% in size", "details": "chicken DT40 Tdp1-/-;hTDP1 cells + 20 nM CPT, ATP luminescence, 48 h; series mostly up to 46.2 µM", "method_in_brief": "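Chicken DT40 Tdp1-/- cells complemented with human TDP1, 400 cells/well, exposed to compounds plus 20 nM camptothecin for at least 48 h at 37 C; viability read as ATP content by CellTiter-Glo luminescence.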", "values": [
      {"smiles": "COC(=O)C1=C(c2cccc(OCc3ccccc3)c2)C[C@@H]2CC[C@H]1N2C(=O)NCc1ccccc1C(F)(F)F", "Potency": "active: 20.6 µM"},
      {"smiles": "CCOC(=O)[C@]12Cc3cc(C)ccc3[C@H]1N(C(C)C)C(=O)c1ccccc12", "Potency": "active: 10.3 µM"},
      {"smiles": "ClC1=C(Cl)C2(Cl)C(CBr)CC1(Cl)C2(Cl)Cl", "note": "(stereo not given)", "Potency": "inactive"},
      {"smiles": "CC(NC1CCCCC1)C(O)C12CC3CC(CC(C3)C1)C2", "note": "(stereo not given)", "Potency": "active: 18.4 µM"},
      {"smiles": "Cc1nc2c(-c3ccc(F)cc3)c(C)nn2c(C)c1CCC(=O)N1CCC2(CC1)OCCO2", "Potency": "inactive"},
      {"smiles": "Cc1ccc(-n2c(/C=C/c3ccc(Br)s3)nc3ccccc3c2=O)cc1C", "Potency": "inconclusive [inhibitor, single point]"},
      {"smiles": "CN1CCc2nc(N)c(C#N)c(-c3ccccc3)c2C1", "Potency": "inactive"},
      {"smiles": "CCC1=Nc2cc(C(=O)N3CCC4(CC3)OCCO4)ccc2Sc2ccccc21", "Potency": "inconclusive [inhibitor, single point]"},
      {"smiles": "COc1ccc(C2NCc3ccc4c(c3-n3cccc32)OCO4)cc1OC", "note": "(stereo not given)", "Potency": "inconclusive [inhibitor, single point]"},
      {"smiles": "O=C(Cn1c(=O)oc2cc(S(=O)(=O)N3CCCC3)ccc21)Nc1cccc(C(F)(F)F)c1", "Potency": "active: 13 µM"},
      {"smiles": "O=C1C(Cc2cnc[nH]2)NC(=S)N1c1ccccc1", "note": "(stereo not given)", "Potency": "inactive"},
      {"smiles": "CN(C)CC1CSCCC1(O)c1ccc(Cl)cc1", "note": "(stereo not given)", "Potency": "inconclusive [inhibitor, single point]"},
      {"smiles": "CC(=O)Oc1ccc2c3c1O[C@H]1[C@@H](OC(C)=O)C=C[C@H]4[C@@H](C2)N(C)CC[C@@]341", "Potency": "inactive"},
      {"smiles": "CC(=O)O[C@H]1C[C@H](O[C@H]2[C@@H](O)C[C@H](O[C@H]3[C@@H](O)C[C@H](OC4CC[C@@]5(C)C(CC[C@@H]6[C@@H]5CC[C@]5(C)[C@@H](C7=CC(=O)OC7)[C@@H](O)C[C@]65O)C4)O[C@@H]3C)O[C@@H]2C)O[C@H](C)[C@H]1O[C@@H]1O[C@H](CO)[C@@H](O)[C@H](O)[C@H]1O", "note": "(stereo not given in full)", "Potency": "active: 3.35 µM"},
      {"smiles": "COC(=O)C1=C(c2ccc(OCc3ccccc3)cc2)C[C@@H]2CC[C@H]1N2C(=O)NCc1ccc2c(c1)OCO2", "Potency": "active: 5.8 µM"},
      {"smiles": "O=C(Cc1c(-c2ccccc2)nc2ccc(Br)cn12)N1CCCC1", "Potency": "inactive"},
      {"smiles": "CCN(c1ccccc1)S(=O)(=O)c1ccc(C(=O)NC2CCCCC2)cc1", "Potency": "inconclusive [inhibitor, single point]"},
      {"smiles": "COC(=O)[C@@]1(Cc2ccccc2)[C@H]2C(=O)N(Cc3ccccc3)C(=O)[C@H]2[C@H]2CN=C(SCc3ccc(C#N)cc3)N21", "Potency": "inconclusive [inhibitor, single point]"},
      {"smiles": "CN1C(=O)/C(=C/C=C/c2ccco2)C(=O)NC1=S", "Potency": "inconclusive [inhibitor, single point]"},
      {"smiles": "COc1ccc2ccc(O)c(CN3CC=C(c4ccccc4)CC3)c2c1", "Potency": "inconclusive [inhibitor, single point]"},
      {"smiles": "COc1cccc(N2C(=O)NC(=O)/C(=C\\c3cn(C)c4ccccc34)C2=O)c1", "Potency": "inconclusive [inhibitor, full curve, poor fit]"},
      {"smiles": "O=c1[nH]c(O)c(N=Nc2cccc(S(=O)(=O)N3CCOCC3)c2)c(=O)[nH]1", "Potency": "inactive"},
      {"smiles": "C[n+]1c(-c2ccccc2)cc(-c2ccc(O)cc2)cc1-c1ccccc1", "Potency": "active: 18.4 µM"},
      {"smiles": "CC(C1OC(C)(C)C(O)C1O)C1CC[C@@]2(C)C3=CCC4C(C)(C)C(=O)CC[C@]4(C)C3CC[C@@]12C", "note": "(stereo not given in full)", "Potency": "inconclusive [inhibitor, single point]"},
      {"smiles": "O=C1NCN(c2ccccc2)C12CCNCC2", "Potency": "inactive"},
      {"smiles": "O=C(Cn1c(=O)oc2cc(S(=O)(=O)N3CCCCCC3)ccc21)NCc1ccccc1Cl", "Potency": "active: 9.2 µM"},
      {"smiles": "CCC(=Nc1ccccc1N)c1c(O)[nH]c(=O)[nH]c1=O", "Potency": "inactive"},
      {"smiles": "COc1cc(C[C@H](C)N)c(OC)cc1C", "Potency": "inactive"},
      {"smiles": "CC(Cc1ccccc1)/[N+]([O-])=C\\c1ccc(C(F)(F)F)cc1", "note": "(stereo not given)", "Potency": "inconclusive [inhibitor, full curve, poor fit]"},
      {"smiles": "O=[N+]([O-])c1cccc(NP(=O)(Oc2ccccc2)Oc2ccccc2)c1", "Potency": "inconclusive [inhibitor, single point]"},
      {"smiles": "NC(=NCc1ccc(Cl)cc1)SCCCc1cnc[nH]1", "Potency": "active: 21.1 µM"},
      {"smiles": "COc1ccc(/C=C/C(=O)c2c(O)n(CCC3=CCCCC3)c(=O)[nH]c2=O)cc1", "Potency": "active: 6.51 µM"},
      {"smiles": "CCCCNS(=O)(=O)c1ccc(OCC(=O)N2CCN(Cc3ccc4c(c3)OCO4)CC2)cc1", "Potency": "active: 10.3 µM"},
      {"smiles": "Cc1ccc(C)c(N2CCN(C(=O)C3CCCN(S(=O)(=O)c4cccc5nsnc45)C3)CC2)c1", "note": "(stereo not given)", "Potency": "active: 5.8 µM"},
      {"smiles": "Cc1ccccc1S(=O)(=O)N1C[C@H]2[C@H]3C(=O)N(C4CCCCC4)C(=O)[C@H]3CC(=O)[C@H]2[C@@H]1c1ccc(Cl)cc1", "Potency": "inconclusive [inhibitor, partial curve, poor fit]"},
      {"smiles": "COc1c(CC=C(C)C)c2c(c3oc(=O)c(-c4ccc(O)cc4)c(O)c13)C=CC(C)(C)O2", "Potency": "inactive"},
      {"smiles": "COc1ccc2c3c1O[C@H]1C(=O)CC[C@H]4[C@@H](C2)N(C)CC[C@]314", "Potency": "inactive"},
      {"smiles": "O=C1NC(=S)NC(=O)C1=Cc1ccc(Br)s1", "Potency": "active: 10.3 µM"},
      {"smiles": "Oc1cc(Cl)cc(Cl)c1Cl", "Potency": "inconclusive [inhibitor, single point]"},
      {"smiles": "O=C1CN=C(c2ccccc2)c2cc(Br)ccc2N1Cc1cc(=O)n2ccccc2n1", "Potency": "inconclusive [inhibitor, single point]"},
      {"smiles": "O=C1CN=C(c2ccccc2)c2ccccc2N1", "Potency": "inactive"},
      {"smiles": "C=C[C@H]1CN2CC[C@H]1C[C@H]2c1[nH]c2ccccc2c1CCO", "Potency": "inactive"},
      {"smiles": "c1ccc(CCN2CCCCC2)nc1", "Potency": "inactive"},
      {"smiles": "CSc1ccc(CN2CCN(C(=O)Cc3ccccc3)CC2)cc1", "Potency": "inconclusive [inhibitor, single point]"},
      {"smiles": "Cc1ccc(NC(=O)N(Cc2ccc3c(c2)OCO3)C2CCN(Cc3ccccc3)CC2)cc1F", "Potency": "inconclusive [inhibitor, single point]"},
      {"smiles": "O=[N+]([O-])c1ccc(N2CCCC2)c(F)c1Br", "Potency": "active: 13 µM"},
      {"smiles": "C[C@@H]1O[C@@H](O[C@@H]2C=C3CC[C@@H]4[C@H](CC[C@]5(C)[C@@H](c6ccc(=O)oc6)CC[C@]45O)[C@@]3(C)CC2)[C@H](O)[C@H](O)[C@H]1O", "Potency": "active: 0.143 µM"},
      {"smiles": "CCOc1c(Cl)cc(CNc2ccc(S(N)(=O)=O)cc2)cc1OC", "Potency": "inconclusive [inhibitor, single point]"},
      {"smiles": "C/C=C(\\C)C(=O)N[C@@H](c1ccccc1)[C@@H](O)C(=O)O[C@H]1C[C@@]2(O)[C@@H](OC(=O)c3ccccc3)C3[C@](C)(C(=O)[C@H](OC(C)=O)C(=C1C)C2(C)C)[C@@H](O)C[C@H]1OC[C@@]31OC(C)=O", "note": "(stereo not given in full)", "Potency": "active: 0.013 µM"},
      {"smiles": "COCCN1C(=O)NC(=O)/C(=C\\c2ccc(Br)cc2)C1=O", "Potency": "active: 20.6 µM"},
      {"smiles": "CC(C)c1ccc(NC(=O)Nc2nc(C(N)CCc3ccccc3)cs2)cc1", "note": "(stereo not given)", "Potency": "active: 5.8 µM"},
      {"smiles": "COC(=O)C1=C(C)NC(=S)NC1c1ccc(N(CCCl)CCCl)cc1Cl", "note": "(stereo not given)", "Potency": "active: 9.2 µM"},
      {"smiles": "Clc1cccc(/C=N\\Nc2nccs2)c1", "Potency": "active: 14.6 µM"},
      {"smiles": "C[C@H]1CN([C@@H](C)CO)C(=O)Cc2cc(NC(=O)Cc3ccccc3)ccc2O[C@H]1CN(C)S(=O)(=O)c1cccs1", "Potency": "inconclusive [inhibitor, single point]"},
      {"smiles": "CC(C)(C)n1nnnc1C(CCc1ccccc1)N1CCC(n2c(=O)[nH]c3ccccc32)CC1", "note": "(stereo not given)", "Potency": "active: 13 µM"},
      {"smiles": "O=c1[nH]c(SCc2ccccc2Cl)nc2c1CCCC2", "Potency": "inconclusive [inhibitor, single point]"},
      {"smiles": "CC12C=CC(=O)C=C1CC(O)C1C2CCC2(C)C1CCC2(C)O", "note": "(stereo not given)", "Potency": "inactive"},
      {"smiles": "CCCCCn1cc(C(=O)C(=O)N2CCOCC2)c2ccccc21", "Potency": "inactive"},
      {"smiles": "C/C(=C/CCC(C)[C@H]1CC[C@@]2(C)C3=C(CC[C@]12C)[C@@]1(C)CCC(=O)C(C)(C)[C@@H]1CC3)C(=O)O", "note": "(stereo not given in full)", "Potency": "inconclusive [inhibitor, partial curve]"},
      {"smiles": "CCOc1ccccc1NC(=O)c1ccccc1N(C)S(=O)(=O)c1ccc(C)cc1", "Potency": "inconclusive [inhibitor, single point]"},
      {"smiles": "c1cc2c(cc1NC1=NCCO1)CCCC2", "Potency": "active: 18.4 µM"},
      {"smiles": "CC(C)(C)OC(=O)NCc1ccc(CNC(=O)c2nc[nH]c2C(=O)NCc2ccc(CNC(=O)OC(C)(C)C)cc2)cc1", "Potency": "active: 14.6 µM"},
      {"smiles": "CCCCN1CC(=O)N2[C@H]3c4cc(C)ccc4OC[C@@H]3[C@H](c3ccccc3)[C@]2(C)C1=O", "Potency": "inconclusive [inhibitor, single point]"},
      {"smiles": "CNC(=O)Oc1ccc2c(c1)C(=O)c1ccccc1CO2", "Potency": "inactive"},
      {"smiles": "CC(=O)N1CCc2cc(S(=O)(=O)N3CCN(c4ccc(C)cc4)C(C)C3)ccc21", "note": "(stereo not given)", "Potency": "active: 23.1 µM"},
      {"smiles": "c1ccc(CNc2ncnc3nc[nH]c23)cc1", "Potency": "inconclusive [inhibitor, single point]"},
      {"smiles": "Oc1ccc2ccccc2c1CN1CC=C(c2ccccc2)CC1", "Potency": "inactive"},
      {"smiles": "COC(=O)C1=C(c2ccc(OCc3ccccc3)cc2)C[C@@H]2CC[C@H]1N2C(=O)NCc1ccc(C(C)(C)C)cc1", "Potency": "active: 11.6 µM"},
      {"smiles": "CCc1c(C(=O)OC)ncc2[nH]c3cc(OC)c(OC)cc3c12", "Potency": "active: 8.2 µM"},
      {"smiles": "CCCCn1c(O)c(C(CC)=NC(C)c2ccccc2)c(=O)[nH]c1=O", "note": "(stereo not given)", "Potency": "inconclusive [inhibitor, single point]"}
    ]}
  ]
}
